According to paper PMC12136788:
The other results are listed elsewhere or left out.

B1: chr1:228407934:228408200:-|three_prime_utr|ENSG00000162931|control|control|control (ssRNA)
RNA: GGGAGUUCUACAGUCCGACGAUCGGCCUUCUGCUUACUGCAGGCCACCUGCCAGGGUUCUCUGGCAUCACGCUGGCAGCCAUUAGACACACAGGGGGGUUUCUCAAAUUCUAAAUAUAAUUGUGAUUAGAACUGUCAAACAUUCAACAGAGGAUUGAGCAUCA
B2: chr5:24509697:24509799:-|CDS|ENSG00000040731|unk|FALSE|unique (ssRNA)
RNA: GGGAGUUCUACAGUCCGACGAUCACUCGACUAUGAGAGCCGAAGACUUUAUACUCUGAAAGUCGAAGCAGAAAACACCCAUGUAGAUCCCCGUUUUUAUUACCUAGGACCAUUUAAAGAUACUACCAUAGUGAAAAUCUCUAUCAACAGAGGAUUGAGCAUCA
B3: chr1:160214333:160214525:+|3pUTR|ENSG00000162734|msi1|FALSE|unique (ssRNA)
RNA: GGGAGUUCUACAGUCCGACGAUCCUACAGUGUUUUCCUUUGCACCGAUCCCCACCCCAAUUCAAUCCCGGAAGGGACUUACUUAGGAAACCCUUCUUUACUAGAUAUCCUGGCCCCCUGGGCUUGUGAACACCUCCUAGCCACCAACAGAGGAUUGAGCAUCA
B4: ENSG00000070961:be:win_2951|CDS|ENSG00000070961|bound_else_gene|NA|bound_elsewhere_windowed (ssRNA)
RNA: GGGAGUUCUACAGUCCGACGAUCUUUUCAACGAAAUAAAUGCCCGGAAAAUUCAUGGUGAAAGAAAUGUAUUCGAAGGAAUCUUUAACAAUGCCAUCUUCUGCACAAUUGUUUUAGGCACUUUUGUGGUACAGAUAAUAAUUGCAACAGAGGAUUGAGCAUCA
B5: chr22:40826605:40826706:-|CDS|ENSG00000100380|unk|total|mutant (ssRNA)
RNA: GGGAGUUCUACAGUCCGACGAUCCACCAAAUUACAGGUCUAAAUAAGAGAUGGAAUUCCGGAUAAUAAACUUACUGACCCAGCCGGACACUUUUUAAAUACUAAUGAACCCUUUCUUUUCAGGAUCCAGAAGUUAUGGUGGCUCAACAGAGGAUUGAGCAUCA
B6: chr10:37949572:37952126:-|three_prime_utr|ENSG00000175395|control|control|control (ssRNA)
RNA: GGGAGUUCUACAGUCCGACGAUCUAAUCCUUCAAAACAAUCAGAUAAUUCACACAAGAGGUACACCUUAUGAAUCGCAUCAAUAGAGGGAAAUUUUCAGCUACAAUCUUUGCUCUCUCUGUGUAUCAGCAAAUACAUAGAGAGCAACAGAGGAUUGAGCAUCA

Biological target: MSI1 full-length (mouse, UniProt Q61474 1-362)
UniProt Q61474, sequence (Q61474 whole entry): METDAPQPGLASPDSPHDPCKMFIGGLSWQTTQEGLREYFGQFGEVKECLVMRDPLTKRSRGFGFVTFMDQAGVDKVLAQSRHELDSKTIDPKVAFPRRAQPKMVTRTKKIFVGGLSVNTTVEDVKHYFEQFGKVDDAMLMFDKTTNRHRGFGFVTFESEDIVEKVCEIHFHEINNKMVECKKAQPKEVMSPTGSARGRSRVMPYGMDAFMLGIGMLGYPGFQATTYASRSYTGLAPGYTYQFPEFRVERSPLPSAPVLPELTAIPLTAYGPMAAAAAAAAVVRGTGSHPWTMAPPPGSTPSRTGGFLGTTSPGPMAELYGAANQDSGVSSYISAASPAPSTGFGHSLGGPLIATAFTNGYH
Test: nsRBNS (natural sequence RNA bind-n-seq); RBNS binding buffer (assumed for nsRBNS): 25 mM Tris pH 7.5, 150 mM KCl, 3 mM MgCl2, 0.01% Triton X-100, 500 ug/ml BSA, 20 U/ml SUPERase-In, 4 C; UNK is unkempt and MSI1 is Musashi-1; names of the RNAs are library labels; protein concentration not given here; high values mean tight binding

| Binder | binding signal [enrichment R] |
| --- | --- |
| B1 | 0.679 |
| B2 | 3.85 |
| B3 | 2.23 |
| B4 | 0.212 |
| B5 | 0.5 |
| B6 | 0.445 |
